# This is one part of the list. The full chains were built here from the parent and the listed change. Values near 0.05 are background.
# B1: TEV protease; numbered along this chain (parent)
# chain: MGESLFKGPRDYNPISSSICHLTNESDGHTTSLYGIGFGPFIITNKHLFRRNNGTLVVQSLHGVFKVKDTTTLQQHLVDGRDMIIIRMPKDFPPFPQKLKFREPQREERICLVTTNFQTKSMSSMVSDTSCTFPSGDGIFWKHWIQTKDGQCGSPLVSTRDGFIVGIHSASNFTNTNNYFTSVPKNFMELLTNQEAQQWVSGWRLNADSVLWGGHKVFMVKPEEPFQPVKEATQL
# Variants of: B1
# Assay: raw area under fraction-flipped curve 0-4 h after induction (AUC4h, not background-subtracted), DNA-recorder readout of cleavage of the substrate (dimensionless); higher = more cleavage of the substrate by the protease variant
# Conditions: temperature: 34 °C; time window: 0-4 h after rhamnose induction
# Method: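 In vivo DNA recorder in E. coli TOP10(DE3) ΔrhaA at 34 °C. Each TEVp single-site mutant (parent TEVp 0) is paired with a single-site variant of the 7-mer TEVs (canonical ENLYFQ|S). The substrate sits between flexible linkers in a Bxb1-sfGFP-TEVs-SsrA fusion, so cleavage stabilises Bxb1 and speeds flipping of a recombination array, read by NGS. The value is the raw area under the fraction-flipped curve over 0-4 h after rhamnose induction (AUC4h), with ≥20 reads per time point. It is not background-subtracted; inactive controls average about 0.047.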
# 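Also: Bxb1 expression induced with 0.2% (w/v) L-rhamnose at OD600 near 0.5, cultures sampled hourly, flipped fraction per protease–substrate barcode pair counted by paired-end Illumina sequencing.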
Variant,area with substrate ENAYFQS,area with substrate ENCYFQS,area with substrate ENDYFQS,area with substrate ENEYFQS,area with substrate ENFYFQS,area with substrate ENGYFQS,area with substrate ENHYFQS,area with substrate ENIYFQS,area with substrate ENKYFQS,area with substrate ENNYFQS,area with substrate ENPYFQS,area with substrate ENQYFQS,area with substrate ENRYFQS,area with substrate ENSYFQS,area with substrate ENTYFQS,area with substrate ENVYFQS,area with substrate ENYYFQS,area with substrate ENWYFQS,area with substrate ENMYFQS
T30F,0.0565,0.0637,0.0663,0.0685,0.0684,0.0584,0.0616,0.0881,0.0528,0.0562,0.0688,0.0686,0.0662,0.0611,0.0581,0.0765,0.0618,–,–
T30W,0.0665,0.0537,0.0646,0.0512,–,0.0516,0.0649,0.116,–,–,0.0517,0.0438,0.0563,0.0898,–,0.0857,0.0381,0.0537,–
T44D,0.0512,0.0446,0.0264,0.0351,0.0487,–,0.0348,0.0578,0.0455,–,0.0469,0.0437,0.0354,0.07,0.0574,0.0541,–,0.0391,0.0332
T44W,0.0376,0.0487,0.0489,0.0547,0.0544,0.0315,–,–,0.0464,0.039,0.0395,–,0.0708,0.0462,0.0879,0.0483,0.0663,0.0431,0.0378
F41W,0.07,0.0643,0.0652,0.0495,–,0.0599,–,–,–,–,0.0649,0.0505,0.0547,0.0495,0.0612,0.0641,–,0.0286,0.0698
G39Q,0.0391,0.0521,0.0323,0.0328,–,0.0359,–,–,–,0.0541,0.033,0.0386,0.0362,0.0477,0.0063,0.0412,0.0481,–,–
G39W,0.0537,–,0.0461,0.0454,–,0.0368,0.0615,0.0399,0.0607,0.0426,0.0451,0.0443,0.0384,0.0519,0.0383,0.0379,–,–,0.0421
I36V,0.045,0.0544,0.0618,0.0597,–,0.053,–,–,0.0571,–,–,0.0609,0.0545,0.0542,–,–,–,0.0575,0.0739
I36A,0.0488,–,0.0511,0.054,0.05,–,0.0788,0.0906,0.0681,0.0552,0.0295,0.0589,0.051,0.0616,0.0568,0.0509,–,0.0051,–
I36D,0.046,0.0396,0.0469,0.0459,0.05,0.0414,–,0.0274,0.0494,0.0321,–,0.0534,0.0383,0.0332,0.0343,0.0392,0.0406,0.0336,–
I36E,0.0485,0.0509,0.0445,0.0517,0.0466,0.0435,0.0503,–,0.045,0.0324,0.0356,0.0466,–,0.043,0.0489,0.0426,0.0574,0.0522,–
I36R,0.0496,0.0402,0.0539,0.0475,0.0437,–,0.0501,0.0545,–,0.039,–,0.0366,0.0437,0.0369,–,0.0406,0.0462,–,–

# — the supplement of paper PMC12217912
